# Test results as given in the antibiotic and cytotoxicity screens of Wong et al. (2023).
# The list shows a part of the results.
# Key:
# HSkMC = human skeletal muscle cells; assay: cytotoxicity call (relative viability < 0.9); conditions: 10 µM
# HepG2 = assay: cytotoxicity call (relative viability < 0.9); conditions: 10 µM
# S. aureus RN4220 = assay: growth inhibition call (relative growth <= 0.2); conditions: 50 µM
SMILES,cytotoxicity call (HSkMC),cytotoxicity call (HepG2),growth inhibition call (S. aureus RN4220)
C[C@H]1CN([C@@H](C)CO)C(=O)c2cc(NS(C)(=O)=O)ccc2O[C@@H]1CN(C)S(C)(=O)=O,inactive,inactive,inactive
O=C(O)c1ccccc1OP(=O)(O)O,inactive,inactive,inactive
C[C@H](O)C#Cc1ccc2c(c1)O[C@@H](CN(C)C(=O)Cc1ccccn1)[C@@H](C)CN([C@@H](C)CO)S2(=O)=O,inactive,inactive,inactive
C[C@H](CO)N1C[C@H](C)[C@H](CN(C)S(=O)(=O)c2cn(C)cn2)Oc2ccc(NS(=O)(=O)c3ccc(Cl)cc3)cc2CC1=O,inactive,inactive,inactive
C[C@@H]1CN([C@@H](C)CO)C(=O)Cc2cc(NC(=O)Cc3ccccc3)ccc2O[C@H]1CN(C)C(=O)Nc1cccc2ccccc12,inactive,inactive,inactive
C[C@H]1CN([C@@H](C)CO)C(=O)c2cccc(NC(=O)Nc3ccc(F)cc3)c2O[C@@H]1CN(C)C(=O)Nc1ccc(C(F)(F)F)cc1,inactive,inactive,inactive
COc1ccc(S(=O)(=O)N(C)C[C@H]2OCCCC[C@@H](C)Oc3ccc(NC(=O)NC4CCCCC4)cc3C(=O)N([C@@H](C)CO)C[C@@H]2C)cc1,inactive,active,inactive
C[C@@H]1CN([C@@H](C)CO)C(=O)Cc2cc(NC(=O)CCN3CCOCC3)ccc2O[C@H]1CN(C)S(=O)(=O)c1ccccc1,inactive,inactive,inactive
C[C@@H]1CN([C@H](C)CO)C(=O)c2cc(NC(=O)Nc3cccc4ccccc34)ccc2O[C@@H](C)CCCCO[C@H]1CN(C)C(=O)NC1CCCCC1,inactive,active,inactive
COc1ccccc1CNC(=O)C[C@H]1C[C@@H]2c3cc(NC(=O)C4CCOCC4)ccc3O[C@@H]2[C@H](CO)O1,inactive,inactive,inactive
Cc1noc(C)c1NC(=O)N(C)C[C@H]1Oc2c(NC(=O)Nc3ccc(C(F)(F)F)cc3)cccc2C(=O)N([C@H](C)CO)C[C@@H]1C,inactive,inactive,inactive
C[C@H](CO)N1C[C@H](C)[C@@H](CN(C)Cc2ccc(C(=O)O)cc2)Oc2ccc(NS(C)(=O)=O)cc2CC1=O,inactive,inactive,inactive
C[C@@H]1CCCCO[C@H](CN(C)C(=O)CCC(F)(F)F)[C@H](C)CN([C@@H](C)CO)C(=O)c2cc(NC(=O)CCCCCC(=O)Nc3ccccc3N)ccc2O1,inactive,inactive,inactive
c1cc(CCN2CCNCC2)ccn1,inactive,inactive,inactive
CC#CC[C@@H](C)[C@H](O)/C=C/[C@@H]1[C@H]2C/C(=C/CCCC(=O)O)C[C@H]2C[C@H]1O,inactive,inactive,inactive
C[C@H](CO)N1C[C@H](C)[C@H](CN(C)S(=O)(=O)c2cn(C)cn2)Oc2c(NS(C)(=O)=O)cccc2C1=O,inactive,inactive,inactive
Cc1noc(C)c1NC(=O)N(C)C[C@H]1Oc2c(NS(C)(=O)=O)cccc2C(=O)N([C@H](C)CO)C[C@H]1C,inactive,inactive,inactive
C[C@@H]1CN([C@@H](C)CO)C(=O)c2cc(NC(=O)C3CC3)ccc2O[C@H]1CN(C)C(=O)Nc1ccc2c(c1)OCO2,inactive,inactive,inactive
CCCNC(=O)Nc1ccc2c(c1)C(=O)N(C)C[C@H](OC)[C@H](C)CN(Cc1ccc(-c3ccccn3)cc1)[C@@H](C)CO2,inactive,inactive,inactive
C[C@H](CO)N1C[C@H](C)[C@H](CN(C)C(=O)Nc2ccc(C(F)(F)F)cc2)Oc2c(NS(C)(=O)=O)cccc2C1=O,inactive,inactive,inactive
C[C@@H]1CN([C@H](C)CO)C(=O)c2cc(NS(C)(=O)=O)ccc2O[C@H]1CN(C)S(=O)(=O)c1cn(C)cn1,inactive,inactive,inactive
C[C@H]1CCCCO[C@@H](CN(C)Cc2ccncc2)[C@@H](C)CN([C@@H](C)CO)C(=O)c2cc(NC(=O)Nc3ccc4c(c3)OCO4)ccc2O1,inactive,inactive,inactive
C[C@H]1CN([C@@H](C)CO)C(=O)Cc2cc(NC(=O)C3CCCCC3)ccc2O[C@H]1CN(C)Cc1ccc(Oc2ccccc2)cc1,active,active,inactive

SMILES,cytotoxicity call (HSkMC),cytotoxicity call (HepG2),growth inhibition call (S. aureus RN4220)
C[C@H](CO)N1C[C@H](C)[C@@H](CN(C)Cc2ccc(-c3ccccc3)cc2)Oc2ccc(NC(=O)Cc3cn(C)c4ccccc34)cc2CC1=O,inactive,inactive,inactive
C[C@H](CO)N1C[C@H](C)[C@H](CN(C)C(=O)NC2CCCCC2)OCCCC[C@H](C)Oc2ccc(NC(=O)CCC(F)(F)F)cc2C1=O,inactive,inactive,inactive
C[C@@H]1CN([C@@H](C)CO)S(=O)(=O)c2ccc(C#CC3(O)CCCC3)cc2O[C@@H]1CN(C)C(=O)c1ccccc1,inactive,inactive,inactive
C=CCOC(=O)N(C)C[C@@H]1Oc2ccc(NC(=O)NC(C)C)cc2C(=O)N([C@H](C)CO[Si](C)(C)C(C)(C)C)C[C@H]1C,inactive,inactive,inactive
C[C@@H]1CN([C@H](C)CO)C(=O)Cc2cc(NC(=O)C3CC3)ccc2O[C@@H]1CN(C)C(=O)Nc1ccccc1,inactive,inactive,inactive
C[C@@H]1CCCCO[C@@H](CN(C)Cc2ccc(C(F)(F)F)cc2)[C@@H](C)CN([C@@H](C)CO)C(=O)c2cc(NS(=O)(=O)c3ccccc3)ccc2O1,inactive,active,inactive
Cc1ccc(S(=O)(=O)Nc2cccc3c2O[C@H](CN(C)S(C)(=O)=O)[C@H](C)CN([C@H](C)CO)C3=O)cc1,inactive,inactive,inactive
C[C@H]1CN([C@@H](C)CO)C(=O)c2cc(NC(=O)CCN3CCOCC3)ccc2O[C@H]1CN(C)S(=O)(=O)c1cn(C)cn1,inactive,inactive,inactive
OCC(O)C(O)C(O)CO (stereo not drawn),inactive,inactive,inactive
CC(C)NC(=O)Nc1ccc2c(c1)C(=O)N([C@H](C)CO)C[C@@H](C)[C@H](CN(C)C(=O)C1CCCCC1)OCCCC[C@@H](C)O2,inactive,inactive,inactive
O=C(CN1CCOCC1)N[C@@H]1CC[C@@H](CCn2cc(C3CCCC3)nn2)O[C@H]1CO,inactive,inactive,inactive
O=C(C[C@H]1C=C[C@H](NC(=O)c2ccncc2)[C@H](CO)O1)NCc1ccncn1,inactive,inactive,inactive
C[C@@H]1CN([C@H](C)CO)C(=O)c2cccc(NS(=O)(=O)c3cn(C)cn3)c2O[C@@H]1CN(C)Cc1ccncc1,inactive,inactive,inactive
COc1ccc(NC(=O)Nc2ccc3c(c2)C(=O)N([C@H](C)CO)C[C@H](C)[C@@H](CN(C)CC2CCCCC2)OCCCC[C@@H](C)O3)cc1,inactive,inactive,inactive
C[C@H]1CN([C@@H](C)CO)C(=O)c2cccc(NC(=O)C3CCOCC3)c2O[C@H]1CN(C)S(=O)(=O)c1ccccc1,inactive,inactive,inactive
C[C@H](CO)N1C[C@H](C)[C@@H](CN(C)Cc2cccc(F)c2)OCc2ccccc2-c2c(n(C)c3ccccc23)C1=O,inactive,inactive,inactive
CN1CCN(C(=O)C[C@@H]2C=C[C@@H](NC(=O)Nc3ccccc3F)[C@H](CO)O2)CC1,inactive,inactive,inactive
C[C@@H]1CN([C@@H](C)CO)C(=O)c2cc(NC(=O)CCC(F)(F)F)ccc2O[C@@H](C)CCCCO[C@@H]1CN(C)C(=O)Nc1ccc(C(F)(F)F)cc1,inactive,inactive,inactive
C[C@@H]1CN([C@H](C)CO)C(=O)c2cccc(N(C)C)c2O[C@H]1CN(C)S(C)(=O)=O,inactive,inactive,inactive
O=C(NCCCN1CCOCC1)[C@@H]1[C@@H](CO)[C@@H]2Cn3c(cccc3=O)[C@H]1N2C(=O)C1CCCC1,inactive,inactive,inactive
CNC(=O)CN1CCN2CCN(CC(=O)NC)CC(=O)[O][Gd]([O]C(=O)C2)[O]C(=O)C1,inactive,inactive,inactive
CC(C)C[C@H]1NC(=O)N(C)C1=O,inactive,inactive,inactive
COc1ccc(CN(C)C[C@H]2OCCCC[C@@H](C)Oc3ccc(NC(=O)c4ccccc4)cc3C(=O)N([C@@H](C)CO)C[C@@H]2C)cc1,inactive,inactive,inactive
